Experimental data reported in the supplement of paper PMC8728848.
The list shows a part of the results.

What was measured:
Assay in all cases: glycan array binding signal (z-score within array); higher = stronger binding
Details in all cases: glycan notation: IUPAC condensed, linker removed
[1] = molecular target: Gal3S(b1-3)[Fuc(a1-4)]GlcNAc
Summary of the method: (§1)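 Glycan array binding is given as a within-array Z-score, which can be read as non-binding when negative. The arrays, 3228 of them, came from the Consortium for Functional Glycomics database and were retained only where the protein sequence was available. Z-scores were averaged across arrays of the same protein sequence at different concentrations or buffers and across linkers.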

Gal3S(b1-4)Glc = molecular target: Gal3S(b1-4)Glc
Summary of the method: as §1

Gal3S(b1-4)Glc6S = molecular target: Gal3S(b1-4)Glc6S
Summary of the method: as §1

Gal3S(b1-4)GlcNAc = molecular target: Gal3S(b1-4)GlcNAc
Summary of the method: as §1

[2] = molecular target: Gal3S(b1-4)[Fuc(a1-3)]Glc6S
Summary of the method: as §1

[3] = molecular target: Gal3S(b1-4)[Fuc(a1-3)]GlcNAc
Summary of the method: as §1

[4] = molecular target: Gal3S(b1-4)[Fuc(a1-3)]GlcNAc6S
Summary of the method: as §1

Gal3S4S(b1-4)GlcNAc = molecular target: Gal3S4S(b1-4)GlcNAc
Summary of the method: as §1

Gal3S6S(b1-4)GlcNAc = molecular target: Gal3S6S(b1-4)GlcNAc
Summary of the method: as §1

Gal3S6S(b1-4)GlcNAc6S = molecular target: Gal3S6S(b1-4)GlcNAc6S
Summary of the method: as §1

Gal4S(b1-4)GlcNAc = molecular target: Gal4S(b1-4)GlcNAc
Summary of the method: as §1

Gal4S6S(b1-4)GlcNAc = molecular target: Gal4S6S(b1-4)GlcNAc
Summary of the method: as §1

Gal6P(b1-4)GlcNAc = molecular target: Gal6P(b1-4)GlcNAc
Summary of the method: as §1

Gal6S(b1-3)GlcNAc = molecular target: Gal6S(b1-3)GlcNAc
Summary of the method: as §1

Gal6S(b1-3)GlcNAc6S = molecular target: Gal6S(b1-3)GlcNAc6S
Summary of the method: as §1

Gal6S(b1-4)Glc = molecular target: Gal6S(b1-4)Glc
Summary of the method: as §1

Gal6S(b1-4)Glc6S = molecular target: Gal6S(b1-4)Glc6S
Summary of the method: as §1

Gal6S(b1-4)GlcNAc = molecular target: Gal6S(b1-4)GlcNAc
Summary of the method: as §1

Gal6S(b1-4)GlcNAc6S = molecular target: Gal6S(b1-4)GlcNAc6S
Summary of the method: as §1

GalNAc(a1-3)Gal = molecular target: GalNAc(a1-3)Gal
Summary of the method: as §1

GalNAc(a1-3)GalNAc = molecular target: GalNAc(a1-3)GalNAc
Summary of the method: as §1

[5] = molecular target: GalNAc(a1-3)GalNAc(b1-3)Gal(a1-4)Gal(b1-4)Glc
Summary of the method: as §1

[6] = molecular target: GalNAc(a1-3)GalNAc(b1-3)Gal(a1-4)Gal(b1-4)GlcNAc
Summary of the method: as §1

GalNAc(b1-3)Gal = molecular target: GalNAc(b1-3)Gal
Summary of the method: as §1

[7] = molecular target: GalNAc(b1-3)Gal(a1-4)Gal(b1-4)GlcNAc
Summary of the method: as §1

[8] = molecular target: GalNAc(b1-3)Gal(a1-4)Gal(b1-4)GlcNAc(b1-3)Gal(b1-4)Glc
Summary of the method: as §1

[9] = molecular target: GalNAc(b1-3)Gal(a1-6)Gal(b1-4)Glc
Summary of the method: as §1

GalNAc(b1-3)GalNAc = molecular target: GalNAc(b1-3)GalNAc
Summary of the method: as §1

GalNAc(b1-3)GlcNAc = molecular target: GalNAc(b1-3)GlcNAc
Summary of the method: as §1

GalNAc(b1-4)Gal(b1-4)Glc = molecular target: GalNAc(b1-4)Gal(b1-4)Glc
Summary of the method: as §1

GalNAc(b1-4)GlcNAc = molecular target: GalNAc(b1-4)GlcNAc
Summary of the method: as §1

[10] = molecular target: GalNAc(b1-4)GlcNAc(b1-2)Man
Summary of the method: as §1

[11] = molecular target: GalNAc(b1-4)GlcNAc(b1-2)Man(a1-3)[GalNAc(b1-4)GlcNAc(b1-2)Man(a1-6)]Man(b1-4)GlcNAc(b1-4)GlcNAc
Summary of the method: as §1

[12] = molecular target: GalNAc(b1-4)GlcNAc(b1-3)GalNAc(b1-4)GlcNAc
Summary of the method: as §1

GalNAc(b1-4)GlcNAc6S = molecular target: GalNAc(b1-4)GlcNAc6S
Summary of the method: as §1

GalNAc(b1-6)GalNAc = molecular target: GalNAc(b1-6)GalNAc
Summary of the method: as §1

GalNAc3S(b1-4)GlcNAc = molecular target: GalNAc3S(b1-4)GlcNAc
Summary of the method: as §1

B1: Epa1to9 (Candida glabrata) (protein)
chain: MGSSHHHHHHSSGLVPRGSHMTSSNDISLASKDPTTFPLGCSPDITTPKKGLSMELYSYDFRKKGSYPCWDAAYLDPNYPRTGYKSHRLLAKVDGVTGNINFYYHATKGCTPQLGHLPASYNYPKPLTMTNFTMLLYGYFRPKVTGFHTFTISADDLLFVNFGAGNAFDCCRRDSSADHFGNYQAYAIWGSKTAKDELTVHLDAGVYYPIRLFYNNRDYHGALSFTFKTESNENTVSDFSEYFFSLDDTEEGCPGLISYD
glycan array binding signal (z-score) [1]: -0.345
glycan array binding signal (z-score) (Gal3S(b1-4)Glc): -0.283
glycan array binding signal (z-score) (Gal3S(b1-4)Glc6S): -0.343
glycan array binding signal (z-score) (Gal3S(b1-4)GlcNAc): -0.465
glycan array binding signal (z-score) [2]: -0.259
glycan array binding signal (z-score) [3]: -0.406
glycan array binding signal (z-score) [4]: -0.179
glycan array binding signal (z-score) (Gal3S4S(b1-4)GlcNAc): -0.347
glycan array binding signal (z-score) (Gal3S6S(b1-4)GlcNAc): -0.316
glycan array binding signal (z-score) (Gal3S6S(b1-4)GlcNAc6S): 0.525
glycan array binding signal (z-score) (Gal4S(b1-4)GlcNAc): -0.232
glycan array binding signal (z-score) (Gal4S6S(b1-4)GlcNAc): -0.373
glycan array binding signal (z-score) (Gal6P(b1-4)GlcNAc): 0.026
glycan array binding signal (z-score) (Gal6S(b1-3)GlcNAc): 2.49
glycan array binding signal (z-score) (Gal6S(b1-3)GlcNAc6S): 4.86
glycan array binding signal (z-score) (Gal6S(b1-4)Glc): 5.05
glycan array binding signal (z-score) (Gal6S(b1-4)Glc6S): 7.26
glycan array binding signal (z-score) (Gal6S(b1-4)GlcNAc): 4.98
glycan array binding signal (z-score) (Gal6S(b1-4)GlcNAc6S): 10.6
glycan array binding signal (z-score) (GalNAc(a1-3)Gal): -0.358
glycan array binding signal (z-score) (GalNAc(a1-3)GalNAc): -0.351
glycan array binding signal (z-score) [5]: -0.35
glycan array binding signal (z-score) [6]: -0.327
glycan array binding signal (z-score) (GalNAc(b1-3)Gal): -0.347
glycan array binding signal (z-score) [7]: -0.319
glycan array binding signal (z-score) [8]: -0.313
glycan array binding signal (z-score) [9]: -0.346
glycan array binding signal (z-score) (GalNAc(b1-3)GalNAc): -0.342
glycan array binding signal (z-score) (GalNAc(b1-3)GlcNAc): -0.358
glycan array binding signal (z-score) (GalNAc(b1-4)Gal(b1-4)Glc): -0.335
glycan array binding signal (z-score) (GalNAc(b1-4)GlcNAc): -0.351
glycan array binding signal (z-score) [10]: -0.356
glycan array binding signal (z-score) [11]: -0.337
glycan array binding signal (z-score) [12]: -0.351
glycan array binding signal (z-score) (GalNAc(b1-4)GlcNAc6S): -0.348
glycan array binding signal (z-score) (GalNAc(b1-6)GalNAc): -0.349
glycan array binding signal (z-score) (GalNAc3S(b1-4)GlcNAc): -0.355
